Test results published in paper PMC10668032.
The other results are listed elsewhere or left out. At the low end of the ranking the order means little.

target: SIX1-Q177R homeodomain (UniProt Q15475); test: universal protein binding microarray; conditions: Universal all-10-mer PBM (8x60K, AMADID 030236), 300 nM GST-tagged protein, Alexa Fluor 488 anti-GST; buffer, salt, pH and temperature not stated; high values mean tight binding; most listed sequences are background and not binding sites; double strand, one strand shown

Sequence | binding signal [E-score]
CGCTTGCC | -0.128
CCTCGAAA | -0.0416
CGCACCTA | 0.105
AGGACTAT | -0.0342
CGTGATGA | -0.0522
CGTCCGAA | -0.0907
CTTGGTTC | 0.0163
CGAAGGAC | 0.0191
CGGCACCC | -0.00027
TACTCCAA | 0.198
AATCGATT | -0.103
CAACCGAA | -0.128
AAGTCACA | -0.0394
CATTTCAA | -0.287
CTAGAAGC | -0.121
AAATTCTT | -0.232
CGAGGTCC | -0.0846
GCGATTCA | -0.261
CGTCGCTA | -0.101
ATTAAGCC | -0.171
AGGTACAC | 0.452
GGTATGAA | 0.0694
GGCGGTGA | -0.108
AAAGACTA | -0.135
GTGCTGCA | 0.0761

Sequence | binding signal [E-score]
ACGGTCGA | -0.0471
AAGGTTAG | -0.115
AATCAAGT | -0.154
CATGATTC | -0.123
AGTCGACC | -0.14
CATTGTTA | -0.0929
AGGAGTAG | 0.094
CAAGACCC | 0.0688
CGAGCCAG | -0.0412
TAGAAGCA | -0.155
CTATCCAA | -0.124
TGCACAAA | -0.112
AACCGTGT | 0.379
TCACGAAA | -0.00904
GGAACGCA | -0.0668
GTACCGAA | -0.00781
AGGTTAGC | -0.0108
CGAATCAC | -0.108
ATGCCAAA | -0.304
AGTATTCC | -0.0478
CAAGATTA | -0.246
ATGTGTGA | 0.145
TTTATAAA | -0.102
ATAGGGGC | -0.115
AGCACTCC | 0.102

Sequence | binding signal [E-score]
AGACTCGG | 0.16
GAGCAAAA | -0.356
ACGCTATC | 0.0345
CGCTTAGC | -0.19
ACGCACAG | 0.0283
AAATTTTG | -0.242
AGAAGGGC | 0.0188
CCTCATTC | 0.0209
GACGGGGA | 0.0462
ACGGGCTC | -0.06
CGCAAACG | -0.176
ATAGCTAG | -0.0581
TCAGTCAA | -0.0949
GGGTGTTA | 0.475
GCCACCGA | 0.00267
CCTTCTGA | 0.0361
CCCTGCGC | -0.152
CGACTATC | 0.0382
AAGTCACC | -0.126
ATCCAAAA | -0.11
TCTGTTCA | -0.0165
CCAAACCA | -0.176
CTTGTGCC | 0.114
GGCCACTA | 0.0106
GTACCCGA | 0.134

Sequence | binding signal [E-score]
ACCAGGGG | 0.0932
GGACTGTA | -0.199
CGTTTATA | -0.143
ACAGGCTG | -0.117
AGAAAGCT | -0.135
CCCGTCTC | 0.239
CACTTAAG | 0.107
CTTATCGC | -0.106
ATAGGGCA | -0.2
CGACTGAC | -0.0817
GCGCTAAA | -0.101
GATACCGC | 0.293
AGATGAGC | -0.219
GCAGGTAC | -0.0392
GCTGAGCA | -0.094
GTTATAAC | 0.111
ATCGAGAT | -0.0963
AAAGGGCG | -0.0698
CGCAGGGC | -0.0202
ACGCCAAC | 0.0788
ACGGGATG | 0.00155
ACATCATG | -0.0397
AGATAAGA | -0.0149
AGTAGAAC | -0.0714
CCCCGATA | 0.143

Sequence | binding signal [E-score]
ATGTTTTC | -0.0688
CTTACCCC | 0.197
CCGCCGTC | -0.159
GGAGAGAA | -0.0497
AACTAGGC | -0.15
CGCGTAAA | -0.0811
GCTACTAC | 0.00988
AACAAGGG | 0.177
CAGGTTGA | 0.0602
CGCATATA | 0.004
GAGTGACC | -0.0399
GGCTGAGA | -0.092
AGGGACTC | -0.0544
CGAACAGC | 0.0192
ACACACCT | 0.386
TAACAACA | -0.00137
GGCCCATA | -0.308
GTTATAAA | -0.0757
GATCGCAA | -0.106
GGAAAACC | -0.162
ATGTGTCC | 0.0873
AGTTTCTC | -0.129
CGGGGCTA | -0.0526
GAAATCAC | -0.119
AGTAACGG | -0.0894

Sequence | binding signal [E-score]
CAAATCAC | -0.159
GCACCTAC | 0.0592
TGCCCACA | -0.0296
ACAGCTCG | -0.231
CCTCTCTC | 0.0406
TACACTCA | 0.402
GTGCAGGA | 0.0261
ACAAGCCG | -0.021
CTATTGAA | -0.117
ACCTGACC | 0.127
AACAGGTC | -0.168
AAACTCAT | -0.131
CACGTGTC | 0.398
GCAATACA | 0.104
CATTGTAG | -0.0744
ACCAGATG | 0.0175
GCTAACCA | -0.085
AGTATAGA | -0.159
AATGATAA | -0.134
CGGGGCGA | 0.088
GGCTTGCA | -0.0695
CAGGGTAA | 0.21
AGAACTCA | -0.217
CAGATCGA | -0.0533
CGAAAATC | 0.0717

Sequence | binding signal [E-score]
ACGTTCCA | -0.0354
CCGAATGC | -0.128
CCTATTCG | -0.042
CAGCGGGG | 0.194
AACCGGAC | 0.0553
AGCGAGCG | -0.0222
CCAGAGGC | -0.179
GTACAAAC | -0.0177
ACACACTG | 0.248
CCAGACAA | -0.0652
AACACCGC | 0.476
ACGAGCAC | 0.226
AGAGGCCT | -0.231
CTGTTAAC | 0.0494
AACTAGAC | 0.0897
AGGTGCTC | 0.158
GAGATATC | -0.0283
AATACCGA | -0.128
AAAACTCG | 0.00573
CTAGGGAA | 0.0589
AAGCTCCG | -0.199
AATTCAGC | -0.197
AATCACGG | -0.0798
CTACCCTA | 0.0623
CAATGATG | -0.231

Sequence | binding signal [E-score]
ACTTCCCT | -0.171
AACAAGTT | -0.218
AAAGACCG | -0.269
CATAGAAG | -0.0123
GTTAGTTA | -0.0375
CCAGGGAG | 0.0724
CGTACACG | 0.405
AGCGTGAC | 0.0818
TGCTACAA | 0.0102
GAAGCTTC | -0.345
GAGGCCAC | -0.158
AGGGGGAT | 0.23
GGGATGGA | -0.00959
TCAAATAA | -0.155
GTCAAGAA | -0.0991
GCGACAAA | -0.119
CGTGTCGA | 0.404
CGACATTC | 0.00988
CGTCCTCC | 0.0102
ACATTCTA | -0.174
AGGACGTA | -0.0746
CTTAAATA | -0.116
CGTCGGGC | 0.0238
CCAGTGAC | 0.0252
TGAGAGAA | -0.309

Sequence | binding signal [E-score]
AAGGCCTC | -0.185
AATATATA | 0.0933
ACAGTTGG | -0.108
GTTCATCA | -0.091
CCGTTTGA | -0.0414
AAGGTGCC | -0.0584
CTTGCCAA | -0.0256
CGCGAGAA | -0.0524
CAAGGAAG | -0.0601
ACCACTCA | 0.117
GCTTGCTA | -0.2
TAAGGGGA | 0.0595
AGAGTCGG | 0.104
GACGAGAC | -0.0908
ACAGCCAG | 0.0248
ATTAAACG | -0.133
CGCTGCTC | -0.0178
AACCATCG | -0.0548
ACCGTCAT | -0.00641
GAATAGTC | -0.154
AAGACGAC | 0.0972
TGCCCTAA | -0.0768
CGCTAGCC | -0.261
CGCACACC | 0.395
AAAGAAAA | -0.0465

Sequence | binding signal [E-score]
CCCTGTGC | 0.104
CGATTTTA | -0.236
CCGTGTAC | 0.438
CTCTTGTA | -0.0983
CCTCAGAG | 0.0207
GCGGTTCA | -0.0469
CGGTCGAC | 0.151
CCACTCAC | -0.00402
GAGCATGA | -0.204
GATTCCCC | 0.0504
AGGTGCTG | 0.142
ATTACACA | 0.291
CCAATGCG | -0.091
CTATCCAC | 0.101
CGAGAGTA | -0.00616
GGGATAGA | -0.0382
AAGTTTCA | -0.121
AGATTTAG | -0.00392
AAAAGTGT | 0.274
CGGTGTGC | 0.381
AATTTCAT | -0.253
TCCTTGCA | -0.182
GATAGAAA | -0.0956
GAGGCGGC | -0.115
TGGACACA | 0.252

Sequence | binding signal [E-score]
GCGTGACC | -0.071
GGTCATAA | -0.121
ATACATCA | -0.0716
AAACGCTG | -0.17
ATCTAACG | -0.238
CCCAGCAG | -0.15
ACACCTGC | 0.458
CGACCCTA | 0.0377
AATCATGT | 0.0658
AGCTATAC | 0.0159
ATACGTTG | -0.114
AGGCCCCT | -0.122
ACACTGCG | 0.383
CTGGGAAC | 0.0295
GGGTCGAC | 0.0998
CACGGCTC | 0.154
CTTATAGA | -0.0518
ATATCCAT | -0.216
CAGGAACG | -0.171
CATCAGGA | -0.194
ACCAGCAT | 0.0555
AACTCAAG | -0.205
ACTAGGCG | 0.0177
CACGGGAA | 0.135
CGCTGTGA | -0.0995

Sequence | binding signal [E-score]
CTGCATCC | -0.276
AACTCTGT | -0.0165
TCCCCAGA | -0.0439
ATTAGATA | -0.011
CTAATCCA | -0.0301
GGTCACGA | -0.0316
CACCAAAA | 0.217
CTGGTGGA | -0.0855
ACTTTTGC | -0.146
ATGACAAT | -0.254
CAACCAGC | -0.0553
TACGCTCA | -0.0696
CCGTCACA | 0.0847
CTCGCAGC | -0.277
ATCGTTCC | -0.162
CAGAGCTG | -0.0208
CGTCGTAG | -0.149
TCCTCGAA | -0.206
ACTAACAT | -0.156
ATCTTGGC | -0.256
CCGTCACC | -0.124
GGAACCAA | 0.0062
ATAGGGCC | -0.235
ATGAGCAA | -0.138
ATAGTCCA | -0.124

Sequence | binding signal [E-score]
AAAGCCCA | -0.155
ATTCACGG | -0.213
GTGGCGGA | 0.103
ATAGGAAT | -0.156
CCTTCTGC | -0.0398
GATGACCA | -0.251
CGGGACGC | -0.0367
ACGGGAAA | -0.136
ATATCTAG | -0.075
ACCTGGTG | 0.322
GACCACCA | -0.171
CGCATTAG | -0.0956
AAGCGTAG | -0.157
GTGACAAC | -0.0524
CTGTACCC | 0.183
GCGAGAGA | -0.114
CCCACGCA | 0.00271
ACCGACAG | 0.104
ACAGTTTG | -0.259
AGGCCGCC | -0.365
CAGGTCCG | -0.113
ACTGGTCG | -0.0496
ACATGTTG | 0.0251
GCGGAGAC | -0.108
GCCCAGCA | -0.135

Sequence | binding signal [E-score]
CCTACAAC | 0.0683
GCGTAGAA | -0.0506
TTAACGAA | -0.101
CTATAGCC | -0.0826
CAAACATC | -0.339
CAGAATCA | -0.0027
ATGATAAT | -0.253
GCCAGAGC | -0.0441
CCGCGATA | 0.0262
CTGAACCA | -0.141
CCGCCCAA | -0.0688
TATTCAGA | -0.0124
GGTCCGAC | 0.0202
GTCACCCA | 0.0838
AAGCCGTC | -0.186
ATTAGAGC | 0.0378
ATGGGCCA | -0.246
TCACACAA | -0.0208
AGACTTAA | -0.153
